# Some of the results follow.
# Assays:
# HSkMC = human skeletal muscle cells; assay: cytotoxicity call (relative viability < 0.9); conditions: 10 µM
# HepG2 = assay: cytotoxicity call (relative viability < 0.9); conditions: 10 µM
# S. aureus RN4220 = assay: growth inhibition call (relative growth <= 0.2); conditions: 50 µM
Structure (SMILES),cytotoxicity call (HSkMC),cytotoxicity call (HepG2),growth inhibition call (S. aureus RN4220)
C[C@@H]1CN([C@@H](C)CO)C(=O)c2cc(NC(=O)c3ccncc3)ccc2O[C@@H](C)CCCCO[C@H]1CN(C)C(=O)Nc1ccccc1,inactive,inactive,inactive
NC1=N[C@H]2CS[C@@H](CCCCC(=O)O)[C@H]2N1,inactive,inactive,inactive
CC(C)NC(=O)N(C)C[C@@H]1Oc2ccc(NS(=O)(=O)c3cccs3)cc2C(=O)N([C@@H](C)CO)C[C@@H]1C,inactive,inactive,inactive
C[C@H]1CN([C@@H](C)CO)C(=O)CCCn2nncc2CO[C@H]1CN(C)Cc1cccc2c1OCCCO2,inactive,inactive,inactive
C[C@@H]1CN([C@@H](C)CO)S(=O)(=O)c2ccc(/C=C/c3ccccc3)cc2O[C@H]1CN(C)C(=O)CN1CCOCC1,inactive,inactive,inactive
O=C(/C=C/c1cccc(-c2cn(-c3cccc(C(=O)N4CCC5(CC4)C(=O)NCN5c4ccccc4)c3)nn2)c1)NO,inactive,inactive,inactive
CO[C@@H]1CN(C)C(=O)c2cc(NS(=O)(=O)CC(F)(F)F)ccc2OC[C@@H](C)N(Cc2cccnc2)C[C@@H]1C,inactive,inactive,inactive
C[C@@H]1CN([C@@H](C)CO)C(=O)c2cc(NS(C)(=O)=O)ccc2O[C@H]1CN(C)C(=O)Nc1ccc(C(F)(F)F)cc1,inactive,inactive,inactive
C[C@H]1CCCCO[C@H](CN(C)C(=O)Nc2ccc(C(F)(F)F)cc2)[C@@H](C)CN([C@@H](C)CO)C(=O)c2cc(NC(=O)NC3CCCCC3)ccc2O1,inactive,inactive,inactive
C[C@@H]1CN([C@H](C)CO)C(=O)c2cc(N(C)C)ccc2O[C@@H]1CN(C)S(=O)(=O)c1ccc(Cl)cc1,inactive,inactive,inactive
C[C@@H]1CCCCO[C@@H](CN(C)S(=O)(=O)c2ccccc2)[C@H](C)CN([C@@H](C)CO)C(=O)c2cc(NC(=O)Nc3ccccc3)ccc2O1,inactive,inactive,inactive
C[C@H]1CCCCO[C@H](CN(C)Cc2ccc(Cl)c(Cl)c2)[C@@H](C)CN([C@@H](C)CO)C(=O)c2cc(NC(=O)c3ccccc3)ccc2O1,active,inactive,inactive
NCCCCC(NC(CCc1ccccc1)C(=O)O)C(=O)N1CCCC1C(=O)O (stereo unspecified),inactive,inactive,inactive
C[C@H]1CN([C@@H](C)CO)C(=O)c2cccc(NC(=O)c3nc4ccccc4s3)c2O[C@@H]1CN(C)C(=O)Nc1cccc2ccccc12,inactive,inactive,inactive
CN(C)Cc1cn(CC[C@H]2CC[C@@H](NC(=O)Cc3cccnc3)[C@@H](CO)O2)nn1,inactive,inactive,inactive
C[C@H]1CN([C@@H](C)CO)C(=O)c2cccc(NC(=O)Nc3cccc4ccccc34)c2O[C@H]1CN(C)Cc1ccc(Cl)c(Cl)c1,inactive,inactive,inactive
CC(=O)N[C@@H]1[C@@H](O)[C@H](O)[C@@H](CO)O[C@H]1O,inactive,inactive,inactive
c1ccc(Oc2cccc(Oc3ccccc3)c2)cc1,inactive,inactive,inactive
C[C@H]1CN([C@@H](C)CO)C(=O)Cc2cc(NS(=O)(=O)c3ccc(Cl)cc3)ccc2O[C@@H]1CN(C)Cc1ccc(C(F)(F)F)cc1,active,active,inactive

Structure (SMILES),cytotoxicity call (HSkMC),cytotoxicity call (HepG2),growth inhibition call (S. aureus RN4220)
CCCCCCCCCCCC(CC1OC(=O)C1CCCCCC)OC(=O)C(CC(C)C)NC=O (stereo unspecified),inactive,inactive,inactive
COC(=O)c1c(C)cc(O)cc1O,inactive,inactive,inactive
COc1ccc(S(=O)(=O)Nc2ccc3c(c2)C(=O)N([C@@H](C)CO)C[C@@H](C)[C@@H](CN(C)Cc2ccncc2)O3)cc1,inactive,inactive,inactive
O=C(N/N=C/[C@H](O)[C@@H](O)[C@@H](O)[C@H](O)C(=O)O)c1ccccc1O,inactive,active,inactive
O=C(N[C@@H]1CC(=O)N(C2CC2)C1)C1CCC1,inactive,inactive,inactive
O=C(C[C@@H]1CC[C@@H]2[C@H](COC[C@H](O)CN2S(=O)(=O)c2ccc(Cl)cc2)O1)N1CCc2ccccc2C1,inactive,inactive,inactive
C[C@H]1CN([C@@H](C)CO)C(=O)Cc2cc(NS(=O)(=O)c3cccs3)ccc2O[C@@H]1CN(C)S(C)(=O)=O,inactive,inactive,inactive
Cc1noc(C)c1S(=O)(=O)N(C)C[C@@H]1OCCCC[C@@H](C)Oc2ccc(NC(=O)Nc3ccc(F)cc3)cc2C(=O)N([C@H](C)CO)C[C@H]1C,inactive,inactive,inactive
Cc1ccc(S(=O)(=O)NCC[C@H]2CC[C@H](NS(=O)(=O)c3ccccc3Cl)[C@H](CO)O2)cc1,inactive,inactive,inactive
COc1cccc(N2CCN(C3=Nc4c(F)cccc4[C@H](CC(=O)O)N3c3cc(C(F)(F)F)ccc3OC)CC2)c1,inactive,inactive,inactive
NCCCc1ccc2c(c1)OCO2,inactive,inactive,inactive
COc1ccc(NC(=O)Nc2ccc3c(c2)C(=O)N([C@H](C)CO)C[C@H](C)[C@@H](CN(C)C(=O)Nc2cccc4ccccc24)O3)cc1,inactive,inactive,inactive
COc1ccc(NC(=O)Nc2ccc3c(c2)C(=O)N([C@@H](C)CO)C[C@H](C)[C@@H](CN(C)C(=O)C2CCCCC2)OCCCC[C@@H](C)O3)cc1,inactive,inactive,inactive
O=C(ON1C(=O)CCC1=O)c1ccccc1,inactive,inactive,inactive
CC(C)(C)OC(=O)C[C@@H]1CC=CC[C@@H](CC(=O)NCCO)C(=O)N[C@@H](Cc2ccccc2)COC1=O,inactive,inactive,inactive
C[C@H](CO)N1C[C@H](C)[C@H](CN(C)CC2CCCCC2)OCCCC[C@H](C)Oc2ccc(NC(=O)Nc3cccc4ccccc34)cc2C1=O,active,active,inactive
CCC=CCC=CCC=CCC=CCC=CCC=CCCC(=O)O,inactive,inactive,inactive
Cc1ccc(S(=O)(=O)N(C)C[C@@H]2Oc3ncc(C#CC4(O)CCCC4)cc3C(=O)N([C@H](C)CO)C[C@@H]2C)cc1,inactive,inactive,inactive

# Reference: the antibiotic and cytotoxicity screens of Wong et al. (2023)
